{
  "source": "paper PMC12254070",
  "about": "“Antimicrobial Peptides Design Using Deep Learning and Rational Modifications: Activity in Bacteria, Candida albicans, and Cancer Cells” (Current Microbiology, 2025)",
  "tested_on": "human red blood cells",
  "test": "Hemolysis assay",
  "set-up": "key: *: For some of the peptides, hemolytic activity assays did not achieve hemolysis greater than 10% at the evaluated concentrations; therefore, a value of 100 μM was used to calculate the therapeutic indices",
  "details": "class symbol; 10% hemolysis not reached at evaluated concentrations (3.13-50 µM)",
  "protocol": "Human blood from a healthy fasting volunteer donor was collected in sodium citrate tubes and centrifuged at 1000 XG at room temperature for 7 min. The sediment was washed 3 times with sterile 0.9% phosphate buffered saline (PBS), centrifuged at 1000 XG and the supernatants were discarded. […] The treated erythrocytes were incubated at 37 °C for 3 h at 90 rpm and centrifuged at 1000 XG at room temperature for 5 min. Fifty µL of the supernatants were transferred to a 96-well plate, and the absorbances were measured at 545 nm. Triton X-100 (0.1%) was used as a positive control, and sterile 0.9% PBS as a negative control. Each treatment had three replicate wells, and the percentage of hemolysis was calculated at 50 µM for each peptide using the following equation. %Hemolysis=ODPEP-OD0.9%PBS/OD0.1%Triton×100-OD0.9%PBS×100% where OD(x) is the optical density of each solution at 545 nm. The minimum hemolytic concentration (MHC) was determined as the lowest peptide concentration that induced 10% hemolysis of human red blood cells.\nThe hemolytic activity curve was used to interpolate the minimum peptide concentration that results in 10% hemolysis (MHC).",
  "note": "Ends that are not written are not given here.",
  "data": [
    {"sequence": "ALRKLLKKLAKAVKA [OrP3M]", "values": [
      {"measurement": "MHC (minimum hemolytic concentration)", "result": "*"}
    ]},
    {"sequence": "IKKWGKVLKKLI [VeP1M]", "values": [
      {"measurement": "MHC (minimum hemolytic concentration)", "result": "*"}
    ]}
  ]
}
